This note sets out measurements from patent publication US12606546B2, “Small molecule inhibitors of calcium channel activity and uses thereof” (Arizona Board of Regents on Behalf of the University of …, priority 2020, dated 2026).

This assay deals with high voltage activated calcium channels. Description: Fura-2AM calcium imaging, 90 mM KCl-evoked Ca2+ influx in DRG neurons. The note with it: 20 μM overnight, rat DRG neurons, relative to 0.01% DMSO.

As to `Cc1ccc(C(c2nnnn2-c2c(C)cccc2C)N2CCN(C(=O)c3ccco3)CC2)s1` (stereo not shown) [5aa, 1-{[1-(2,6-dimethylphenyl)-1H-1,2,3,4-tetrazol-5-yl](5-methylthiophen-2-yl)methyl}-4-(furan-2-carbonyl)piperazine], the “inhibition of Ca2+ influx when DRGs were depolarized with 90 mM KCl” value is approximately 60%.
